Assay results published in the supplement of paper PMC12217912.
The other results are listed elsewhere or left out. The full chains were built here from the parent and the listed change. Inactive controls read about 0.05.

B1: TEV protease; numbered along this chain (parent)
chain: MGESLFKGPRDYNPISSSICHLTNESDGHTTSLYGIGFGPFIITNKHLFRRNNGTLVVQSLHGVFKVKDTTTLQQHLVDGRDMIIIRMPKDFPPFPQKLKFREPQREERICLVTTNFQTKSMSSMVSDTSCTFPSGDGIFWKHWIQTKDGQCGSPLVSTRDGFIVGIHSASNFTNTNNYFTSVPKNFMELLTNQEAQQWVSGWRLNADSVLWGGHKVFMVKPEEPFQPVKEATQL

Variants of: B1
Experiment: raw area under fraction-flipped curve 0-4 h after induction (AUC4h, not background-subtracted), DNA-recorder readout of cleavage of the substrate (dimensionless); higher = more cleavage of the substrate by the protease variant
Settings: temperature: 34 °C; time window: 0-4 h after rhamnose induction
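Also: Bxb1 expression induced with 0.2% (w/v) L-rhamnose at OD600 near 0.5, cultures sampled hourly, flipped fraction per protease–substrate barcode pair counted by paired-end Illumina sequencing.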

Variant | area with substrate ECLYFQS | area with substrate EDLYFQS | area with substrate EFLYFQS | area with substrate EGLYFQS | area with substrate EILYFQS | area with substrate EKLYFQS | area with substrate ELLYFQS | area with substrate EMLYFQS | area with substrate EPLYFQS | area with substrate EQLYFQS | area with substrate ERLYFQS | area with substrate ESLYFQS | area with substrate ETLYFQS | area with substrate EVLYFQS | area with substrate EWLYFQS | area with substrate EYLYFQS | area with substrate EHLYFQS | area with substrate EELYFQS
F95Y | 0.0978 | 0.135 | 0.0979 | 0.087 | 0.0894 | 0.112 | 0.0871 | 0.12 | 0.147 | 0.089 | 0.103 | 0.0862 | 0.0942 | – | – | – | – | –
P104A | 0.105 | – | – | – | – | 0.131 | – | 0.097 | – | 0.104 | 0.0785 | 0.103 | 0.0988 | 0.0792 | 0.0926 | 0.0986 | – | –
L48D | 0.0583 | – | – | 0.0488 | 0.0552 | 0.0552 | 0.0596 | 0.0613 | 0.0557 | 0.0612 | 0.0758 | 0.0567 | 0.0605 | 0.0443 | 0.0653 | 0.0576 | 0.0651 | –
H168S | 0.0556 | 0.0572 | – | 0.0643 | 0.0635 | 0.0678 | – | 0.0555 | 0.0589 | – | – | 0.0765 | – | 0.0532 | 0.0527 | 0.0528 | – | –
P104S | 0.0561 | 0.0571 | 0.062 | 0.0451 | – | – | – | – | 0.0593 | 0.0532 | 0.0733 | 0.0598 | 0.064 | 0.0484 | – | 0.0611 | – | 0.0714
P184Y | 0.0651 | – | 0.0614 | 0.058 | 0.0544 | 0.0532 | – | – | 0.065 | 0.0532 | – | 0.0714 | – | – | – | 0.0732 | 0.0565 | –
S209I | 0.119 | – | – | – | – | – | – | – | – | – | – | – | – | – | – | – | – | –
K216P | 0.0785 | 0.132 | – | – | – | – | – | – | – | – | – | – | – | – | – | – | – | –
T192K | 0.0853 | 0.0935 | – | 0.08 | 0.0836 | 0.0925 | 0.0779 | 0.104 | 0.0849 | 0.101 | 0.0951 | 0.0917 | – | – | 0.0789 | – | – | 0.103
V64E | 0.0968 | 0.128 | 0.11 | – | 0.0941 | 0.141 | 0.122 | 0.136 | 0.177 | – | – | 0.102 | – | 0.0949 | 0.0953 | 0.0818 | 0.118 | –
H215V | 0.0848 | – | – | – | – | – | – | 0.0956 | – | 0.06 | 0.069 | 0.0863 | 0.071 | 0.0704 | – | – | 0.0614 | –
V200Y | 0.0666 | 0.0462 | 0.0652 | 0.0512 | 0.0619 | – | – | – | – | 0.0449 | 0.0537 | 0.0761 | 0.0693 | 0.0592 | – | 0.0496 | – | –
E3N | 0.125 | – | – | – | – | – | – | – | 0.16 | – | 0.134 | – | – | – | – | – | – | –
R106P | 0.0901 | 0.12 | – | 0.111 | 0.0993 | 0.114 | 0.103 | – | 0.134 | 0.108 | – | 0.12 | 0.113 | 0.0797 | 0.0897 | – | 0.0852 | 0.0828
M88T | 0.0807 | – | – | – | – | 0.0693 | – | 0.103 | 0.0939 | – | 0.114 | 0.0952 | 0.137 | – | 0.0672 | – | – | –
G8I | 0.0928 | – | – | 0.0833 | – | 0.1 | – | – | – | 0.107 | 0.101 | – | – | 0.0701 | – | – | 0.0682 | –
T159C | 0.0885 | – | – | 0.126 | – | – | – | 0.112 | – | 0.117 | – | – | – | – | – | – | – | –
V200G | 0.0294 | – | – | – | – | – | – | – | – | – | – | 0.0735 | – | 0.0808 | 0.0567 | – | – | –

Variant | area with substrate ECLYFQS | area with substrate EDLYFQS | area with substrate EFLYFQS | area with substrate EGLYFQS | area with substrate EILYFQS | area with substrate EKLYFQS | area with substrate ELLYFQS | area with substrate EMLYFQS | area with substrate EPLYFQS | area with substrate EQLYFQS | area with substrate ERLYFQS | area with substrate ESLYFQS | area with substrate ETLYFQS | area with substrate EVLYFQS | area with substrate EWLYFQS | area with substrate EYLYFQS | area with substrate EHLYFQS | area with substrate EELYFQS
E189K | 0.123 | – | – | – | – | – | – | – | – | 0.147 | – | 0.101 | 0.0921 | 0.126 | – | 0.123 | – | 0.0996
D208R | 0.0672 | 0.0749 | – | 0.0683 | 0.076 | 0.0813 | 0.0776 | – | 0.0932 | 0.0837 | 0.0571 | 0.0933 | 0.0886 | 0.0635 | 0.0599 | – | – | 0.0789
W141H | 0.0781 | – | – | – | – | 0.079 | – | 0.078 | – | 0.0835 | 0.0689 | 0.0754 | – | 0.0746 | – | – | – | –
L235H | 0.0993 | – | – | – | 0.0974 | – | 0.111 | 0.109 | – | – | – | 0.106 | – | – | – | 0.0291 | – | 0.15
E195Y | 0.104 | 0.147 | – | – | – | – | – | – | – | 0.102 | 0.111 | 0.116 | – | 0.0873 | – | – | – | –
D137P | 0.107 | – | – | – | 0.0873 | – | 0.113 | – | 0.122 | – | – | 0.124 | 0.116 | – | 0.142 | – | – | –
C152T | 0.0881 | 0.051 | – | – | 0.0491 | 0.049 | – | 0.0609 | 0.0476 | – | 0.0694 | 0.0648 | – | 0.0652 | 0.0693 | 0.0521 | – | 0.0401
W144F | 0.0848 | – | – | 0.0754 | 0.0529 | 0.0867 | – | – | 0.0817 | – | 0.0847 | 0.0825 | 0.0947 | 0.0771 | – | – | – | –
N24P | 0.0584 | 0.063 | 0.0661 | – | – | 0.0742 | 0.0524 | 0.0538 | 0.0533 | 0.0385 | 0.0562 | 0.0602 | – | 0.0546 | 0.0757 | 0.0476 | 0.0494 | 0.0389
H168R | 0.0509 | 0.0461 | 0.0601 | – | 0.0408 | 0.0631 | – | 0.0617 | 0.0533 | – | 0.0566 | 0.0632 | 0.0573 | 0.0571 | 0.0589 | 0.0532 | – | 0.0469
P96H | 0.13 | 0.147 | 0.118 | – | 0.109 | 0.0982 | 0.0673 | – | – | 0.129 | 0.087 | 0.106 | – | 0.105 | 0.101 | 0.0566 | 0.0802 | 0.0889
K120E | 0.0801 | – | 0.0751 | 0.101 | 0.119 | 0.103 | 0.0755 | – | – | – | 0.108 | 0.0981 | 0.114 | 0.0992 | – | – | – | 0.106
G136V | 0.0837 | – | – | 0.0988 | 0.112 | – | – | 0.0987 | 0.108 | 0.115 | 0.1 | 0.124 | – | 0.0909 | – | 0.0837 | 0.0937 | 0.127
S209P | 0.078 | – | – | 0.0668 | 0.0674 | 0.0639 | 0.0813 | – | – | – | 0.0791 | 0.0849 | 0.0851 | 0.0841 | 0.0637 | 0.104 | – | –
Y12A | 0.113 | 0.144 | 0.134 | – | 0.0857 | – | 0.111 | – | – | 0.103 | 0.0962 | 0.0981 | – | 0.116 | 0.0831 | – | 0.0708 | 0.0992
G136E | 0.0969 | 0.112 | – | – | – | 0.0569 | 0.0896 | 0.0996 | 0.111 | – | 0.13 | 0.102 | 0.122 | 0.106 | 0.0809 | – | 0.0511 | –
R160C | 0.0977 | 0.0837 | – | – | 0.094 | 0.103 | 0.0874 | 0.175 | 0.12 | 0.115 | 0.124 | 0.102 | 0.111 | 0.182 | 0.0478 | – | – | 0.134
